Publication PMC4336329 (PLoS ONE, 2015)
Hit rate of the full screen: of about 310,000 compounds, about 2,200 (0.71%) showed an effect of 50% or more. Effects have a minus sign here. The list shows a part of the results.

target: human ether-à-go-go-related gene (hERG) potassium channel (human, UniProt Q12809); assay: primary screen, population patch clamp on CHO cells stably expressing hERG
Sequence (Q12809 whole entry, looked up): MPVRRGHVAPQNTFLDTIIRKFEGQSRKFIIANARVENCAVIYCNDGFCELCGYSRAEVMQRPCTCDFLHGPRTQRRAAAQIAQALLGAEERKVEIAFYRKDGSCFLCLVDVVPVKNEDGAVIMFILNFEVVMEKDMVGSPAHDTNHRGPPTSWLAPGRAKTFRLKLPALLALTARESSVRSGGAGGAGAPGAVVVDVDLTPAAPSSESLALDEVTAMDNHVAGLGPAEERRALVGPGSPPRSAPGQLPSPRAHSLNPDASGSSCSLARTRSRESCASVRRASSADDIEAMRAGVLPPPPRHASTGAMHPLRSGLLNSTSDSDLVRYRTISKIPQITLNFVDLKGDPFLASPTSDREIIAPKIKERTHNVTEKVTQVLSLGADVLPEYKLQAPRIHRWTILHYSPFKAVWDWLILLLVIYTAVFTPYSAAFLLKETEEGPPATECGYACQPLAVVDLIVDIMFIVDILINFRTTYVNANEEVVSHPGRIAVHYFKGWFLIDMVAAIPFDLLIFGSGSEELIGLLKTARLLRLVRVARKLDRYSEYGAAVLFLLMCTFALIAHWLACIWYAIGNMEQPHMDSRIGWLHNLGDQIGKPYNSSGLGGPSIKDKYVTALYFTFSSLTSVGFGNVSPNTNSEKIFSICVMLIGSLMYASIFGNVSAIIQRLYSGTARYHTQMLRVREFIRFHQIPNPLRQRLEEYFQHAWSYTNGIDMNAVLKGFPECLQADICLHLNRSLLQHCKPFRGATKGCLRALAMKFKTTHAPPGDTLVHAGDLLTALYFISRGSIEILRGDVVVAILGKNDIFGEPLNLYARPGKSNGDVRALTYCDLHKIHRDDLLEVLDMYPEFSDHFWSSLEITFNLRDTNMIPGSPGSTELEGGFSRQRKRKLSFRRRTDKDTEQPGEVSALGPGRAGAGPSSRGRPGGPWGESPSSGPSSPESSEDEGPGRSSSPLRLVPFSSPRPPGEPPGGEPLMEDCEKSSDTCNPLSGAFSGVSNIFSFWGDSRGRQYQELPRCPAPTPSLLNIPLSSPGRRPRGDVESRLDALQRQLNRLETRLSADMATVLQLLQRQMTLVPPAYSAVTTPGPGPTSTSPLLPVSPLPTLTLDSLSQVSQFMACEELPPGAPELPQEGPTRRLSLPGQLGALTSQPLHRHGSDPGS

Structure (SMILES)	hERG current change (%, negative = inhibition) at 1uM
Cc1cc(OC(C)C(=O)NCc2ccccn2)c2c(C)c(Cc3ccccc3)c(=O)oc2c1 (centres unmarked)	12.1%
CC1(C)CC(CCN(Cc2ccccc2)C(=O)c2ccco2)(c2ccccc2)CCO1 (centres unmarked)	10.7%
CN1CCCN(C(=O)c2cccc3ccccc23)CC1	6.22%
O=C(O)CCC(=O)Nc1cccc(-c2csc(-c3ccccc3)n2)c1	4.25%
Cc1nc2ccn(Cc3ccccc3)c(=O)c2cc1C(=O)N1CCN(c2ccc(F)cc2)CC1	-43.2%
Cl.OC(CNC1CCCC1)COc1ccccc1Br (centres unmarked)	16.8%
O=C1CN(CC(=O)N2CCOCC2)c2ccccc2O1	13.2%
O=C(Nc1ccc(SC(F)F)cc1)c1ccccc1F	7.84%
Fc1ccc(Nc2nc(Oc3ccccc3F)nc(N3CCCC3)n2)cc1	13.2%
CCCn1nc2ccccc2c1P(=O)(N1CCOCC1)N1CCOCC1	-0.888%
Cc1ccc2nc(N=C(N)N)nc(C)c2c1	15.4%
CCCCN(C)C(=S)Nc1ccc(Oc2ccccc2)cc1	12.6%
O=C(NCCS(=O)(=O)N1CCCCCC1)c1ccccc1	10.2%
Cc1ccc(Br)cc1S(=O)(=O)Nc1cccnc1	17.8%
CCCCN(C(=O)CSc1ncn[nH]1)c1c(N)n(Cc2ccccc2)c(=O)[nH]c1=O	11.9%
O=C(N/N=C/c1ccccc1Cl)c1nc2ccc([N+](=O)[O-])cc2c(=O)[nH]1	8.9%
COc1ccc2c(c1)C(=O)CC(c1ccc3c(c1)OCCO3)O2 (centres unmarked)	16.1%
O=C(O)c1ccccc1C1=Nc2ccc(O)cc2Oc2cc(O)ccc21	11.5%
COc1cccc(N2CCN(CC(=O)C34CC5CC(CC(C5)C3)C4)CC2)c1	14%
C=CCN(CC=C)C(=O)C(=O)c1cc(C)n(-c2ccc([N+](=O)[O-])cc2)c1C	-35.1%
Cc1cc(C)c(NC(=O)COC(=O)c2cc([N+](=O)[O-])ccc2N2CCOCC2)c(C)c1	23.8%
O=C(NCC1CC1)c1ccc2c3n(nc2c1)-c1ccccc1CO3	8.4%

Structure (SMILES)	hERG current change (%, negative = inhibition) at 1uM
CCNS(=O)(=O)c1ccc(CCC(=O)Nc2ccc(C(=O)OC)cc2)cc1	18.3%
O=C(COc1ccccc1Br)NCCc1nc2ccccc2[nH]1	-0.177%
C#CCOCCOCCOCCNc1nc(N2CCN(C(=O)CCCCCCCCCCNC(=O)[C@@H](CCSC)n3cc(CCO)nn3)CC2)nc(N2CCN(C(=O)CCCCCCCCCCNC(=O)[C@H](CCC(=O)O)n3cc(CCCCCN)nn3)CC2)n1	4.75%
O=C(Nn1cnnc1)c1ccccc1CCc1ccccc1	10.2%
CCOC(=O)C1CCN(C(=O)CN2C(=O)c3cccnc3Oc3ccccc32)CC1	12.6%
CC1(C(=O)Oc2ccccc2)Cc2ccccc2C(=O)O1 (centres unmarked)	7.24%
CCCc1cc(=O)oc2cc(C)cc(OCC(=O)Nc3ccccn3)c12	20.7%
O=C(Nc1ccc(S(=O)(=O)Nc2nccs2)cc1)c1cc(-c2ccccn2)nc2ccccc12	10.4%
CCN(CC(=O)Nc1ccccc1C(F)(F)F)C(=O)c1ccc2c(=O)n3c(nc2c1)CCC3	12.6%
O=[N+]([O-])c1ccc(/C=N/n2cn[nH]c2=S)cc1	21.8%
O=C(CN1CCN(Cc2ccccc2)C1=O)NCc1cccs1	12.3%
COc1ccc(N(CC(O)CN2C(=O)NC(C)(C)C2=O)S(=O)(=O)c2ccc(C)cc2)cc1 (centres unmarked)	-1.89%
COC(=O)C(c1ccccc1)N1CCCCCC1.Cl (centres unmarked)	4.56%
CS(=O)(=O)N(CCc1ccccc1)CC(=O)N1CCc2ccccc2C1	-1.07%
CCc1nc(NCCCN2CCOCC2)c2oc3ccccc3c2n1	-8.01%
CN(C)CCNC(=O)Cn1nc(-c2ccc(Cl)cc2)ccc1=O	2.94%
Cc1ccc(CC(=O)Nc2ccc(Cl)cn2)cc1	12.2%
CCN(CC)c1ccc(NC(=O)/C=C\c2ccccc2Cl)cc1	7.66%
O=C(NCCc1ccccc1)c1cnc(Cl)c(Cl)c1	16.6%
Cc1ccc(-n2c(Cc3cccn3C)nnc2SCC(=O)NCc2ccc3c(c2)OCO3)cc1	-6.64%
O=C(c1ccc(CS(=O)Cc2ccc(Cl)cc2)o1)N1CCN(c2ccccc2F)CC1 (centres unmarked)	-5%
CCO[C@H]1OC(C(=O)NCc2ccccc2)=C[C@@H](C)[C@@H]1CCCO	12.3%
